The values below come from patent US11655268B2, “Nucleoside or nucleotide derivatives, and uses thereof” (ST Pharm Co., Ltd., priority 2018, dated 2023).

Bounds are passed on as bounds.

For experiment [1], the system named is Influenza virus A/Puerto Rico/8/34 (H1N1). Kind of experiment: Cytopathic effect reduction, influenza A H1N1 (PR8) in MDCK cells, MTT. The note with it: for Selectivity index FluA H1N1 (PR8): CC50/EC50; for EC50: read-out: Anti-Flu activity EC50 FluA H1N1 (PR8), MDCK cells, day 3 post-infection.
Experiment [2] has as its system Influenza virus A/HongKong/8/68 (H3N2). Nature of the experiment: Cytopathic effect reduction, influenza A H3N2 (Hong Kong) in MDCK cells, MTT. The note with it: for Selectivity index FluA H3N2 (Hong Kong): CC50/EC50; for EC50: read-out: Anti-Flu activity EC50 FluA H3N2 (Hong Kong), MDCK cells, day 3 post-infection. Background: Protection from cytopathic effect is a common read-out in antiviral testing.

In general, EC50 refers to the midpoint of the concentration-response curve.

With `Cc1nccc(C(=O)Nc2ccn([C@@H]3O[C@H](CO)[C@@H](O)C3(F)F)c(=O)n2)n1` [Example 24, N-(1-((2R,4R,5R)-3,3-difluoro-4-hydroxy-5-(hydroxymethyl)tetrahydrofuran-2-yl)-2-oxo-1,2-dihydropyrimidin-4-yl)-2-methylpyrimidin-4-carboxamide], in experiment [1], the “Selectivity index FluA H1N1 (PR8)” value is listed as over 83.3 and the EC50 was under 1.2 µM. For the same compound, in experiment [2], the “Selectivity index FluA H3N2 (Hong Kong)” value is recorded as over 45.5 and the EC50 turned out to be 2.2 µM.
For the compound `NC(=O)c1ncn([C@@H]2O[C@H](CO)[C@@H](O)[C@H]2O)n1` [RBV, ribavirin, reference compound], the EC50 in experiment [1] was determined as 42.6 µM; in experiment [2], 21.2 µM.
`Cc1cccnc1C(=O)Nc1ccn([C@@H]2O[C@H](CO)[C@@H](O)C2(F)F)c(=O)n1` [Example 12, N-(1-((2R,4R,5R)-3,3-difluoro-4-hydroxy-5-(hydroxymethyl)tetrahydrofuran-2-yl)-2-oxo-1,2-dihydropyrimidin-4-yl)-3-methylpicolinamide]: in experiment [1], the “Selectivity index FluA H1N1 (PR8)” value was over 1.8 and the EC50 came to 56.9 µM. Further, in experiment [2], the “Selectivity index FluA H3N2 (Hong Kong)” value was over 1.9 and the concentration giving a half-maximal response (EC50) turned out to be 51.7 µM.
On to `O=C(Nc1ccn(C2O[C@H](CO)[C@@H](O)[C@H]2F)c(=O)n1)c1ccncn1` (stereo in doubt) [Example 36, N-(1-((2S,3R,4R,5R)-3-fluoro-4-hydroxy-5-(hydroxymethyl)tetrahydrofuran-2-yl)-2-oxo-1,2-dihydropyrimidin-4-yl)pyrimidine-4-carboxamide], for which, in experiment [1], the “Selectivity index FluA H1N1 (PR8)” value is reported as over 3.0 and the EC50 came to 33.3 µM. Further, in experiment [2], the “Selectivity index FluA H3N2 (Hong Kong)” value is listed as over 14.7 and the EC50 was determined as 6.8 µM.
For `O=C(Nc1ccn([C@@H]2O[C@H](CO)[C@@H](O)C2(F)F)c(=O)n1)c1ccc(F)cn1` [Example 9, N-(1-((2R,4R,5R)-3,3-difluoro-4-hydroxy-5-(hydroxymethyl)tetrahydrofuran-2-yl)-2-oxo-1,2-dihydropyrimidin-4-yl)-5-fluoropicolinamide], in that order: over 11.4, 8.8 µM, over 22.7 and 4.4 µM.
With `COc1ccc(C(=O)Nc2ccn([C@@H]3O[C@H](CO)[C@@H](O)C3(F)F)c(=O)n2)cn1` [Example 22, N-(1-((2R,4R,5R)-3,3-difluoro-4-hydroxy-5-(hydroxymethyl)tetrahydrofuran-2-yl)-2-oxo-1,2-dihydropyrimidin-4-yl)-6-methoxynicotinamide], in experiment [1], the “Selectivity index FluA H1N1 (PR8)” value is listed as over 5.0 and the EC50 is 20.1 µM. In experiment [2], the “Selectivity index FluA H3N2 (Hong Kong)” value is recorded as over 2.7 and the EC50 amounted to 36.4 µM.
Regarding `Cc1ccc(C(=O)Nc2ccn([C@@H]3O[C@H](CO)[C@@H](O)C3(F)F)c(=O)n2)cn1` [Example 4, N-(1-((2R,4R,5R)-3,3-difluoro-4-hydroxy-5-(hydroxymethyl)tetrahydrofuran-2-yl)-2-oxo-1,2-dihydropyrimidin-4-yl)-6-methylnicotinamide], in experiment [1], the “Selectivity index FluA H1N1 (PR8)” value was over 166.7 and the EC50 worked out at 1.8 µM. Moreover, in experiment [2], the “Selectivity index FluA H3N2 (Hong Kong)” value is reported as over 150.0 and the EC50 came out at 2 µM.
The like results for `Cl.Nc1ccc(C(=O)Nc2ccn([C@@H]3O[C@H](CO)[C@@H](O)C3(F)F)c(=O)n2)nc1` [Example 20, 5-amino-N-(1-((2R,4R,5R)-3,3-difluoro-4-hydroxy-5-(hydroxymethyl)tetrahydrofuran-2-yl)-2-oxo-1,2-dihydropyrimidin-4-yl)picolinamide-hydrochloride] were, in that order, over 10.3, 9.7 µM, over 5.3 and 18.8 µM.
For `COc1ccc(C(=O)Nc2ccn([C@@H]3O[C@H](CO)[C@@H](O)C3(F)F)c(=O)n2)nc1` [Example 21, N-(1-((2R,4R,5R)-3,3-difluoro-4-hydroxy-5-(hydroxymethyl)tetrahydrofuran-2-yl)-2-oxo-1,2-dihydropyrimidin-4-yl)-5-methoxypicolinamide], in that order: over 4.8, 20.7 µM, over 3.6 and 27.9 µM.
As for `N#Cc1ccc(C(=O)Nc2ccn(C3O[C@H](CO)[C@@H](O)[C@H]3F)c(=O)n2)nc1` (stereo in doubt) [Example 37, 5-cyano-N-(1-((2S,3R,4R,5R)-3-fluoro-4-hydroxy-5-(hydroxymethyl)tetrahydrofuran-2-yl)-2-oxo-1,2-dihydropyrimidin-4-yl)picolinamide], in experiment [1], the “Selectivity index FluA H1N1 (PR8)” value was over 2.1 and the EC50 stood at 47.3 µM. Moreover, in experiment [2], the “Selectivity index FluA H3N2 (Hong Kong)” value is over 16.7 and the concentration giving a half-maximal response (EC50) amounted to 6 µM.
For `O=C(Nc1ccn([C@@H]2O[C@H](CO)[C@@H](O)C2(F)F)c(=O)n1)c1cccnn1` [Example 5, N-(1-((2R,4R,5R)-3,3-difluoro-4-hydroxy-5-(hydroxymethyl)tetrahydrofuran-2-yl)-2-oxo-1,2-dihydropyrimidin-4-yl)pyridazine-3-carboxamide], in that order: over 136.4, 2.2 µM, over 157.9 and 1.9 µM.
The like results for `O=C(Nc1ccn([C@@H]2O[C@H](CO)[C@@H](O)C2(F)F)c(=O)n1)c1ccc(C(F)(F)F)nc1` [Example 14, N-(1-((2R,4R,5R)-3,3-difluoro-4-hydroxy-5-(hydroxymethyl)tetrahydrofuran-2-yl)-2-oxo-1,2-dihydropyrimidin-4-yl)-6-(trifluoromethyl)nicotinamide] were, in that order, over 16.7, 6 µM, over 34.5 and 2.9 µM.
For the compound `O=C(Nc1ccn([C@@H]2O[C@H](CO)[C@@H](O)C2(F)F)c(=O)n1)c1ccc(-c2ccccc2)cn1` [Example 25, N-(1-((2R,4R,5R)-3,3-difluoro-4-hydroxy-5-(hydroxymethyl)tetrahydrofuran-2-yl)-2-oxo-1,2-dihydropyrimidin-4-yl)-5-phenylpicolinamide], in experiment [1], the “Selectivity index FluA H1N1 (PR8)” value is over 15.4 and the EC50 turned out to be 6.5 µM. In experiment [2], the “Selectivity index FluA H3N2 (Hong Kong)” value was over 10.5 and the EC50 was 9.5 µM.
Take `Nc1ccn([C@@H]2O[C@H](CO)[C@@H](O)C2(F)F)c(=O)n1` [Gemcitabine, reference compound]: in experiment [1], the “Selectivity index FluA H1N1 (PR8)” value was determined as 344 and the EC50 came out at 0.7 µM. In experiment [2], the “Selectivity index FluA H3N2 (Hong Kong)” value is 344 and the EC50 is 0.7 µM.
For the compound `O=C1CCCN1c1ccn([C@@H]2O[C@H](CO)[C@@H](O)C2(F)F)c(=O)n1` [Example 7], in experiment [1], the “Selectivity index FluA H1N1 (PR8)” value is reported as over 7.1 and the EC50 is 14.1 µM. For the same compound, in experiment [2], the “Selectivity index FluA H3N2 (Hong Kong)” value was over 6.5 and the half-maximal effective concentration (EC50) was 15.4 µM.
For `Cc1cncc(C(=O)Nc2ccn(C3O[C@H](CO)[C@@H](O)[C@H]3F)c(=O)n2)n1` (stereo in doubt) [Example 34, N-(1-((2S,3R,4R,5R)-3-fluoro-4-hydroxy-5-(hydroxymethyl)tetrahydrofuran-2-yl)-2-oxo-1,2-dihydropyrimidin-4-yl)-6-methylpyrazine-2-carboxamide], in that order: over 4.2, 23.6 µM, over 17.9 and 5.6 µM.
The like results for `O=C(Nc1ccn(C2O[C@H](CO)[C@@H](O)[C@H]2F)c(=O)n1)c1cccnn1` (stereo in doubt) [Example 33, N-(1-((2S,3R,4R,5R)-3-fluoro-4-hydroxy-5-(hydroxymethyl)tetrahydrofuran-2-yl)-2-oxo-1,2-dihydropyrimidin-4-yl)pyridazine-3-carboxamide] were, in that order, over 10.0, 10 µM, over 38.5 and 2.6 µM.
For `O=C(Nc1ccn(C2O[C@H](CO)[C@@H](O)[C@H]2F)c(=O)n1)c1ccc([N+](=O)[O-])cn1` (stereo in doubt) [Example 30, N-(1-((2S,3R,4R,5R)-3-fluoro-4-hydroxy-5-(hydroxymethyl)tetrahydrofuran-2-yl)-2-oxo-1,2-dihydropyrimidin-4-yl)-5-nitropicolinamide], in that order: over 5.1, 19.5 µM, over 28.6 and 3.5 µM.
For `O=C(Nc1ccn([C@@H]2O[C@H](CO)[C@@H](O)C2(F)F)c(=O)n1)c1ccc(Cl)nc1` [Example 23, 6-Chloro-N-(1-((2R,4R,5R)-3,3-difluoro-4-hydroxy-5-(hydroxymethyl)tetrahydrofuran-2-yl)-2-oxo-1,2-dihydropyrimidin-4-yl)nicotinamide], in experiment [1], the “Selectivity index FluA H1N1 (PR8)” value is listed as over 15.9 and the concentration for a half-maximal effect (EC50) worked out at 6.3 µM. In experiment [2], the “Selectivity index FluA H3N2 (Hong Kong)” value is reported as over 12.2 and the concentration giving a half-maximal response (EC50) was 8.2 µM.
The like results for `O=C(Nc1ccn([C@@H]2O[C@H](CO)[C@@H](O)C2(F)F)c(=O)n1)c1cccc(-c2ccccc2)n1` [Example 17, N-(1-((2R,4R,5R)-3,3-difluoro-4-hydroxy-5-(hydroxymethyl)tetrahydrofuran-2-yl)-2-oxo-1,2-dihydropyrimidin-4-yl)-6-phenylpicolinamide] were, in that order, over 58.8, 1.7 µM, over 30.3 and 3.3 µM.
Regarding `O=C(Nc1ccn([C@@H]2O[C@H](CO)[C@@H](O)C2(F)F)c(=O)n1)c1cccnc1` [Example 1, N-(1-((2R,4R,5R)-3,3-difluoro-4-hydroxy-5-(hydroxymethyl)tetrahydrofuran-2-yl)-2-oxo-1,2-dihydropyrimidin-4-yl)nicotinamide], in experiment [1], the “Selectivity index FluA H1N1 (PR8)” value is over 14.3 and the EC50 is 21 µM.
